From patent US20150044245A1, “PARTIAL MHC CONSTRUCTS AND METHODS OF USE” (Oregon Health & Science University, priority 2012, published 2015) come the findings set out here.

Usually Kd stands for the equilibrium constant for the complex coming apart. High values mean weaker binding, low ones tighter binding.

Test [1] deals with four-domain MHC class II from DR*1501-Tg mice (human transgene expressed in mouse). The experiment in a line: direct saturation binding of FITC-labeled construct to MHC class II immuno-adsorbed on Protein L/L243 beads; one-site fit.
In test [2] the target is RTL binding sites on CD11c+ cells of DR*1501-Tg mouse blood. The experiment in a line: flow cytometry; blood of naive DR*1501-Tg mice 15 minutes after injection of 500 µg FITC-labeled RTL; monocyte gate, live cells; No RTL (pre-injection) panel 0.12%. Background: In flow cytometry, cells or beads pass a laser one at a time.
In test [3] the target is RTL binding sites on CD19+ cells of DR*1501-Tg mouse blood. The description is as above.
For test [4], the target named is RTL binding sites on CD3+ cells of DR*1501-Tg mouse blood. The test is described as above.
Test [5] addresses RTL binding sites on CD11b+ monocytes of DR*1501-Tg mice. The experiment in a line: flow cytometry; blood of naive DR*1501-Tg mice 15 minutes after injection of 500 µg FITC-labeled RTL; monocyte gate, live cells; No RTL (pre-injection) panel 0.14%.
For test [6] the target is unchanged. The experiment in a line: flow cytometry; blood of naive DR*1501-Tg mice 15 minutes after injection of 500 µg FITC-labeled RTL; LYMPHOCYTE gate, live cells; No RTL (pre-injection) panel 0.00%.
Test [7] addresses RTL binding sites on CD11c+ cells of DR*1501-Tg mouse blood. The experiment in a line: flow cytometry; blood of naive DR*1501-Tg mice 15 minutes after injection of 500 µg FITC-labeled RTL; lymphocyte gate, live cells; No RTL (pre-injection) panel 0.00%.
The target in test [8] is RTL binding sites on CD19+ cells of DR*1501-Tg mouse blood. Described as above.
Test [9] addresses RTL binding sites on CD3+ cells of DR*1501-Tg mouse blood. In words: flow cytometry; blood of naive DR*1501-Tg mice 15 minutes after injection of 500 µg FITC-labeled RTL; lymphocyte gate, live cells; No RTL (pre-injection) panel 0.05%.
Test [10] deals with RTL binding sites on CD19+ cells of DR*1501-Tg mouse blood. The experiment in a line: flow cytometry; blood of naive DR*1501-Tg mice incubated in vitro with FITC-labeled RTL (legend: 500 µg), 90 minutes post-treatment; monocyte gate; No RTL (pre-treatment) panel 0.00%.
Test [11] deals with RTL binding sites on CD3+ cells of DR*1501-Tg mouse blood. The test is described as above.
Test [12] has as its target RTL binding sites on CD11b+ monocytes of DR*1501-Tg mice. In words: flow cytometry; blood of naive DR*1501-Tg mice incubated in vitro with FITC-labeled RTL (legend: 500 µg), 90 minutes post-treatment; monocyte gate; No RTL (pre-treatment) panel 0.07%.
Test [13] has as its target RTL binding sites on CD11c+ cells of DR*1501-Tg mouse blood. The experiment in a line: flow cytometry; blood of naive DR*1501-Tg mice incubated in vitro with FITC-labeled RTL (legend: 500 µg), 90 minutes post-treatment; monocyte gate; No RTL (pre-treatment) panel 0.09%.
In test [14] the target is RTL binding sites on CD11b+ monocytes of DR*1501-Tg mice. The experiment in a line: flow cytometry; blood of naive DR*1501-Tg mice incubated in vitro with FITC-labeled RTL (legend: 500 µg), 90 minutes post-treatment; LYMPHOCYTE gate; No RTL (pre-treatment) panel 0.00%.
Test [15] addresses RTL binding sites on CD11c+ cells of DR*1501-Tg mouse blood. In words: flow cytometry; blood of naive DR*1501-Tg mice incubated in vitro with FITC-labeled RTL (legend: 500 µg), 90 minutes post-treatment; lymphocyte gate; No RTL (pre-treatment) panel 0.00%.
Test [16] has as its target RTL binding sites on CD19+ cells of DR*1501-Tg mouse blood. The description is as above.
Test [17] deals with RTL binding sites on CD3+ cells of DR*1501-Tg mouse blood. The description is as above.

RTL342M (pDR2/mMOG-35-55) (peptide-MHC) showed a dissociation constant (Kd) in test [1] of 2.04 nM. Moreover, the % of cells in the upper right quadrant (CD11c APC+, RTL FITC+) in test [2] turned out to be 12.3%; in [7] it was 4.15%; in test [13], 6.12%; in test [15], 2.72%. Moreover, the % of cells in the upper right quadrant (CD19 APC+, RTL FITC+) amounted to 5.99% in test [3], 1.63% in test [8], 10.1% in test [10] and 4.87% in test [16]. Besides, the % of cells in the upper right quadrant (CD3 PE+, RTL FITC+) in test [4] is 5.51%; in [9], 0.37%; in test [11] it was 4.7%; in test [17], 2.69%. For the same substance, the % of cells in the upper right quadrant (CD11b PE+, RTL FITC+) in test [5] was 60.8%; in test [6], 16.2%; in test [12], 78.9%; in test [14], 4.31%.
